Screen size: about 420,000 compounds; about 64,000 (15%) were called active. The shares of active, inactive and inconclusive entries below differ from those in the screen. Calls come from the whole dose curve; as a rule, active = well fitted inhibition curve with a large enough effect; inconclusive = small, poorly fitted or top-dose-only effect; inactive = flat fitted curve, though single readings scatter. No potency is given beside an inconclusive call; the fits are too rough.
assay: qHTS for Inhibitors of human tyrosyl-DNA phosphodiesterase 1 (TDP1): qHTS in cells in absence of CPT; conditions: DT40 Tdp1-/- hTDP1 cells, no CPT, ATP luminescence, 48 h; activity change, negative = growth inhibition: at 46.2 µM (top of the series) unless noted; note: nearly all actives have a fitted effect of over 55% in size
Outline: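 Seeded 400 DT40-hTDP1 cells/well (vehicle DMSO, no 20 nM CPT); pinned compounds; ≥48 hr at 37 °C; CellTiter-Glo luminescence as viability measure.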
% is set by controls: 0 for no effect and ±100 for the full control effect; potency is the fitted concentration of half-maximal effect; tags give direction and shape of the fitted curve.

| SMILES | Potency | activity change, negative = growth inhibition |
| --- | --- | --- |
| CSc1ccc(CN(C)Cc2nc3ccccc3c(=O)[nH]2)cc1 | active: 14.6 µM | – |
| Nc1c(N(CCC2=CCCCC2)C(=O)c2ccc([N+](=O)[O-])o2)c(=O)[nH]c(=O)n1Cc1ccccc1 | inconclusive [inhibitor, single point] | – |
| Cc1c(C(=O)OCC(=O)N(C)c2ccccc2)oc2ccccc12 | – | inconclusive: -30.1% [inhibitor] |
| O=C(NC1CCCC1)c1ccc(CSCc2ccccc2F)o1 | inconclusive [inhibitor, partial curve] | – |
| CC(C)(C)C(=O)[C@@H]1[C@@H]2C(=O)N(c3ccc4c(c3)OCCO4)C(=O)[C@@H]2C2c3ccccc3C=CN21 (some centres not stated) | active: 23.1 µM | – |
| CCCCCCN1C=CC=C/C1=C/C=C(C#N)C#N | inconclusive [inhibitor, single point] | – |
| COc1ccc(-c2cccc(CCC(=O)N3CCN(c4cc(C)ccc4C)CC3)c2)cc1 | inconclusive [inhibitor, single point] | – |
| Cc1c(NC(=O)COc2ccc3ccc(=O)oc3c2)c(=O)n(-c2ccccc2)n1C | inactive | – |
| Cc1nn(-c2ccccc2)c2sc(C(=O)NNC(=O)COc3cccc4ccccc34)cc12 | inconclusive [inhibitor, single point] | – |
| Cc1ccc(-c2nsc(SCC(=O)NCC3CCCO3)n2)cc1 (configuration not stated) | inconclusive [inhibitor, single point] | – |
| CC(=O)N1CCN(c2ccc(NC(=O)c3ccc4c(c3)OCCO4)cc2Cl)CC1 | inconclusive [inhibitor, single point] | – |
| CCN1CCN(c2ccc(S(=O)(=O)N3CCCCC3)cc2NC(=O)COc2ccc(Cl)cc2)CC1 | inconclusive [inhibitor, single point] | – |
| O=Nc1ccc(/C=C/c2ccnc3ccccc23)cc1 | active: 8.91 µM | – |
| NC(=O)n1c(O)c(C(=O)c2cccs2)c2cc(Cl)ccc21 | inconclusive [inhibitor, single point] | – |
| CCOC(=O)C1CCCN(S(=O)(=O)c2cc(-c3onc(C)c3C)ccc2OC)C1 (configuration not stated) | inconclusive [inhibitor, single point] | – |
| O=C(CNC(=O)C1CCCCC1)OCC(=O)c1ccc(C2CCCCC2)cc1 | inconclusive [inhibitor, single point] | – |
| COc1cccc(-c2nc(-c3ccc(Br)o3)no2)c1 | inactive | – |
| Cc1ccsc1C(=O)Nc1ccc2c(c1)OCCO2 | inconclusive [inhibitor, single point] | – |
| CN(C(=O)COc1cccc(Br)c1)C1CCS(=O)(=O)C1 (configuration not stated) | inactive | – |
| Cc1ccc(S(=O)(=O)N2CCN(C(=O)CCc3c[nH]c4ccccc34)CC2)cc1 | inconclusive [inhibitor, single point] | – |
| Cc1ccc(NC(=O)CSc2nc3ccccc3c(=O)n2CCCC(=O)N2CCCC2)cc1 | active: 20.6 µM | – |
| Nc1ccccc1-c1ccccc1N | inactive | – |
| COC(=O)c1ccc(NC(=O)CSC2=NCCN2)cc1 | active: 14.6 µM | – |
| COc1ccccc1NC(=O)CCCC(=O)OC(C)C(=O)c1ccccc1 (configuration not stated) | – | inconclusive: -35.2% [inhibitor] |

| SMILES | Potency | activity change, negative = growth inhibition |
| --- | --- | --- |
| Cc1cc(NC(=O)OC2CCCCC2)ccc1[N+](=O)[O-] | inconclusive [inhibitor, single point] | – |
| O=C(C1CCCO1)N1CCN(S(=O)(=O)c2cc(F)ccc2F)CC1 (configuration not stated) | inactive | – |
| O=C(O)CCCNC(=O)CCCn1nnc2ccccc2c1=O | inactive | – |
| COc1ccc(-c2nc(NC(=O)c3ccco3)sc2C)cc1 | active: 23.1 µM | – |
| COC(=O)C1=C(C(=O)OC)[C@]2([C@H]3C/C=C\CN[C@@H](Cc4ccccc4)C(=O)N3Cc3ccccc3)C=C[C@H]1O2 | active: 10 µM | – |
| CCOC(=O)c1c(C)n(C)c2c(C)cc(O)c(OC(=O)CC)c12 | inconclusive [inhibitor, single point] | – |
| Cc1cc(-c2nc(-c3ccc(C(C)(C)C)cc3)no2)no1 | inconclusive [inhibitor, partial curve] | – |
| CCCCn1c(=N)n(CC(=O)c2ccco2)c2ccccc21 | inconclusive [inhibitor, single point] | – |
| COc1ccc(CSc2n[nH]c(C)n2)cc1Br | inactive | – |
| CN(C)CCNC(=O)/C(=C/c1ccc(-c2ccc(Cl)cc2)o1)NC(=O)c1ccccc1 | inconclusive [inhibitor, single point] | – |
| CCCN(c1ccccc1F)S(=O)(=O)c1ccc2c(c1)C(C)(C)C(=O)N2C | inconclusive [inhibitor, single point] | – |
| Cc1cccc(/N=C/c2c(O)ccc3oc4c(c23)CCCC4)n1 | inconclusive [inhibitor, partial curve] | – |
| CCOc1ccccc1N1CCN(C(=O)Nc2ccc(F)c(Cl)c2)CC1 | active: 23.1 µM | – |
| COc1ccc(-c2cc(CCCC(=O)NCCc3cc(OC)ccc3OC)no2)cc1 | inconclusive [inhibitor, single point] | – |
| CNS(=O)(=O)c1ccc(NC(=O)C2c3ccccc3Oc3ccccc32)cc1 | inactive | – |
| COc1ccc(OC)c(CCNC(=O)Cn2cccc2C(=O)c2ccccc2C)c1 | active: 8.2 µM | – |
| CCCC(=O)N1CC(=O)Nc2ccc(Br)cc2C1c1ccc(F)cc1 (configuration not stated) | inactive | – |
| CCN(c1ccccc1)S(=O)(=O)c1cc(C(=O)OCC(=O)c2c(N)n(C)c(=O)n(C)c2=O)ccc1C | active: 23.1 µM | – |
| CCOc1ccccc1NC(=O)c1cc(-c2ccncc2)nc2c(Cl)cccc12 | inconclusive [inhibitor, single point] | – |
| CC(C)(C)OC(=O)NN1CC(=O)N2[C@@H](Cc3c([nH]c4ccccc34)C2(C)C)C1=O | inactive | – |
| COCCn1nnnc1C(c1ccccn1)N1CCN(c2cc(C)ccc2C)CC1 (configuration not stated) | inconclusive [inhibitor, partial curve] | – |
| COc1ccccc1NC(=O)C(C)OC(=O)c1cccc(-n2cnnn2)c1 (configuration not stated) | inactive | – |
| O=C(NCc1ccc(N2CCCC2=O)cc1)c1cc(COc2c(F)cccc2F)on1 | inconclusive [inhibitor, single point] | – |
| OCCN1C2=NCCCN2c2ccccc21 | inactive | – |

| SMILES | Potency | activity change, negative = growth inhibition |
| --- | --- | --- |
| Oc1c(Cl)cc(Cl)cc1CNc1ccccn1 | inactive | – |
| Cc1cccc(-c2nc(CN3CCN(Cc4cccc(F)c4)CC3)c(C)o2)c1 | inconclusive [inhibitor, single point] | – |
| Cc1sc(NC(=S)NC(=O)C2CCCCC2)c(C(N)=O)c1C | inactive | – |
| O[C@@H]1CN(C2CCCCC2)CC[C@H]1N1CCN(CCc2ccccc2)CC1 | inconclusive [inhibitor, partial curve, poor fit] | – |
| O=C(CSc1nnc2ccccn12)Nc1cccc(-c2nc3ccccc3s2)c1 | inactive | – |
| Cc1cc(=O)[nH]c(S/C=C/c2ccccc2)n1 | inconclusive [inhibitor, partial curve] | – |
| O=C(NCc1ccccc1)c1ccc(C(=O)N(C2CCCCC2)C2CCCCC2)cc1 | inconclusive [inhibitor, single point] | – |
| COc1ccc(NC(=O)CN(C)C(=O)c2ccc(COc3ccccc3)cc2)cc1 | inconclusive [inhibitor, single point] | – |
| O=C(Nc1ccc2c(c1)CCCN2C(=O)c1cccs1)c1cccc(F)c1 | inconclusive [inhibitor, single point] | – |
| CCCCn1c(SCC(=O)c2ccc(OCC)cc2)nc2cc(S(N)(=O)=O)ccc21 | inconclusive [inhibitor, single point] | – |
| CC(C)(C)N=C1NN=C(c2cc3ccccc3o2)CS1 | active: 23.1 µM | – |
| CC(=O)N1c2ccccc2C(=O)C1N1CCN(c2ccc(Cl)cc2)CC1 (configuration not stated) | inconclusive [inhibitor, single point] | – |
| CC(C)CCNC(=O)c1[nH]c(C(F)(F)F)nc1-c1ccccc1 | inconclusive [inhibitor, single point] | – |
| COc1ccc(C2=NS(=O)(=O)N(C)C(C(=O)Nc3ccc(C(C)=O)cc3)=C2)cc1OC | active: 11.6 µM | – |
| Cc1ccc(S(=O)(=O)Nc2cc(C)c(O)cc2C)cc1 | inconclusive [inhibitor, single point] | – |
| Cc1c[n+](C)ccc1CC1C([N+](=O)[O-])=C[N-]c2ncnn21 (configuration not stated) | inactive | – |
| CCc1nc(CN2CCCC(C(=O)Nc3ccc(-c4cccc(OC)c4)cc3)C2)c(C)[nH]1 (configuration not stated) | inconclusive [inhibitor, single point] | – |
| O=C(CSc1nc(=O)n2cc(Cl)ccc2n1)Nc1ccc2c(c1)OCCO2 | inconclusive [inhibitor, single point] | – |
| COc1ccc(-c2ccc(SCc3ccccn3)nn2)cc1OC | inconclusive [inhibitor, single point] | – |
| C=CCN(c1ccc(F)cc1)S(=O)(=O)c1cc(C(=O)NC2CCC(O)CC2)ccc1Cl (configuration not stated) | inactive | – |
| COCCN(Cc1ccccc1)C(=O)c1cccc(S(=O)(=O)N2CCN(Cc3ccccc3)CC2)c1 | active: 18.4 µM | – |
| CCOC(=O)c1sc(-c2ccccc2)cc1NC(=O)Nc1ccc([N+](=O)[O-])cc1 | active: 20.6 µM | – |
| Cc1ccc(-c2nc(S(=O)(=O)c3ccc(F)cc3)c(N3CCN(c4ccccc4)CC3)o2)cc1 | inactive | – |
| COc1ccc2c(c1)C1(C)CC(C)(C)N2C(=O)N1c1ccccc1 (configuration not stated) | inconclusive [inhibitor, single point] | – |

Reference: PubChem BioAssay AID686978 (National Center for Advancing Translational Sciences (NCATS), 2013)
